Data on 92 compounds can be found in PubChem BioAssay AID1508624 (National Center for Advancing Translational Sciences (NCATS), 2021).

Molecules are shown by their SMILES. Screen size: about 48,000 compounds; about 120 (0.25%) were called active. Roughly 4% stayed inconclusive and do not appear here. Calls follow the shape of the dose curve; as a rule, active = well fitted activation curve with a large enough effect; inconclusive = small, poorly fitted or top-dose-only effect, or another doubt; inactive = no such curve, though single readings can be large or run the other way. Some of the results follow.

The nature of this test: Primary qHTS for Identification of Small Molecule Activators of Huntingtin-Antisense Promoter Activity. Also: nearly all actives have a fitted effect of over 55% in size. Conditions: HEK293 HTT-AS promoter firefly luciferase reporter (activity 0% = vehicle and -100% = no light), 24 h; series mostly up to 57.5 µM; activity change, positive = activation: at the top concentration. The gist of the method:
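Firefly luciferase readout (Dual-Glo, 10 min RT) after 24 h, 37 °C compound exposure (final up to 57.5 uM) of HEK293 reporter cells cultured 24 h beforehand; PTC124 at 50 uM final as control inhibitor; activity scaled vehicle 0%, zero RLU -100%.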
A general note: qHTS replaces the single test concentration by a dilution series.
Turning to `Oc1ccc(-c2nc(-c3ccccc3)c(-c3ccc(Br)cc3)[nH]2)cc1`, the “activity change, positive = activation” value was inactive: -32.3%.

As to `O=C(COC(=O)C(Cc1c[nH]c2ccccc12)NC(=O)c1ccc(Cl)cc1)c1ccc(Cl)cc1` (configuration not stated), the “activity change, positive = activation” value is inactive: -9.96%.

Regarding `Cc1nn(-c2ccccc2)c2c1cc1c(=O)n(C)c(=O)nc-1n2-c1cccc(Cl)c1`, the “activity change, positive = activation” value was inactive: -14.2%. Consider `COc1ccc(-c2cc(=O)c3cc(OCC(=O)OC(C)C)ccc3o2)cc1`, for which the “activity change, positive = activation” value is inactive: -11.8%. Then `CN(C)CC/C=C1/c2ccccc2COc2ccc(CC(=O)O)cc21`, with inactive: -3.43%; and `Cc1ccc(Cn2c(SCC(=O)NCc3ccccc3Cl)nc3ccsc3c2=O)cc1`, with inactive: -6.98%. To `Fc1ccc(Nc2nc(SCc3ccccc3F)nc3ccccc23)cc1` belongs inactive: -31.8%; to `CCOC(=O)c1cc2c(=O)n3ccccc3nc2n(Cc2ccco2)c1=NC(=O)c1cccc(F)c1`, inactive: -10.1%.

Take `COc1cc(NC(=O)CCCc2nnc3n(CC(C)C)c(=O)c4sccc4n23)cc(OC)c1`: the “activity change, positive = activation” value is inactive: -9.14%. Then `Cc1cc([N+](=O)[O-])ccc1NC(c1nnc(-c2ccccc2)o1)c1ccccc1F` (configuration not stated), with inactive: -7.7%; and `CC(=O)N1CCc2cc(Br)cc(S(=O)(=O)CCC(=O)N3CCN(c4ccccc4)CC3)c21`, with inactive: -9.2%; and `Cc1nc2cc(C(=O)NC3CCCCCC3)ccc2n1-c1ccc(Br)cc1`, with inactive: -21%. To `Cc1cc(-c2ccc(C)c(S(=O)(=O)NCCc3ccc(S(N)(=O)=O)cc3)c2)on1` belongs inactive: -22.7%; to `CC(C)c1ccc(NS(=O)(=O)c2ccc3[nH]cc(C(=O)NCC4CCCO4)c(=O)c3c2)cc1` (configuration not stated), inactive: -3.84%. Then `CCOc1ccc2nc(N3CCCC(C(=O)Nc4ccc(OC)c(Cl)c4)C3)sc2c1` (configuration not stated), with inactive: -3.21%; and `CN(C)S(=O)(=O)c1ccc2c(c1)N(CC(=O)Nc1ccc(F)cc1)C(=O)CS2`, with inactive: 7.19%; and `CCc1ccc(S(=O)(=O)Nc2ccc3[nH]c(=O)sc3c2)cc1`, with inactive: -23.4%. As to `Cc1cccc(NC(=O)c2sc3nc4c(cc3c2N)CN(C(C)C)CC4)c1`, the “activity change, positive = activation” value was inactive: -14.3%. With `Cc1cccc(N2CCN(C(=O)CN3C(=O)COc4ccc(S(=O)(=O)N5CCOCC5)cc43)CC2)c1C`, the “activity change, positive = activation” value was inactive: -8.77%.

On to `CCC1CCCCN1C(=O)CSc1nc(-c2ccc(OC)c(OC)c2)cc(C(F)(F)F)n1` (configuration not stated), for which the “activity change, positive = activation” value was inactive: -35.6%.

As to `CC1=C(C(=O)OC2CCCCCC2)C(c2cccc(F)c2F)CC(=O)N1` (configuration not stated), the “activity change, positive = activation” value is inactive: -32.2%. Then `CCOc1ccc(OCC)c(NC(=O)CCc2nc3cccnc3n2Cc2cccs2)c1`, with inactive: -17.6%; and `COc1ccc(-c2nc(C)c(CCNC(=O)c3c(F)cccc3F)s2)cc1`, with inactive: 9.46%; and `COc1cc(Cl)c(C)cc1NC(=O)CSc1nc2c(c(=O)[nH]1)CCCC2`, with inactive: -9.83%. To `CCCCNC(=O)CCCn1c(=O)c2ccccc2n(Cc2c(C)cc(C)cc2C)c1=O` belongs inactive: -15.4%; to `COC(=O)N1CCCc2cc(S(=O)(=O)N3CCN(c4ccccc4)CC3)ccc21`, inactive: -24.1%.

Turning to `CN(C)c1ccc(CNC(=O)c2cnc3sc(N4CCCCCC4)nn3c2=O)cc1`, the “activity change, positive = activation” value is inactive: -14.4%. `Cc1cccc(Cc2c(C)nc3nc(SCc4ccccc4Cl)nn3c2C)c1`: the “activity change, positive = activation” value is inactive: -9.72%. Then `Cc1ccc(C)c(Cn2c(=O)n(CCC(=O)NCc3ccc4c(c3)OCO4)c(=O)c3sccc32)c1`, with inactive: -2.74%. Then `COC(=O)c1ccccc1NC(=O)c1cc(C)nc2c1c(C)nn2-c1ccc(C)cc1`, with inactive: -7.21%; and `COc1cc(OC)c(NC(=O)n2ncc3cc(Cl)ccc32)cc1Cl`, with inactive: -17.2%. To `COc1ccc(OC)c(NC(=O)CSC2=Nc3ccccc3C3=NC(CC(=O)NCc4ccc(F)cc4)C(=O)N23)c1` (configuration not stated) belongs inactive: -13.9%; to `COc1ccc(C2CC(=O)c3c([nH]c(C(=O)OC4CCCCCC4)c3C)C2)cc1` (configuration not stated), inactive: -22%; to `COc1cccc(OCC(=O)NC2CC(=O)N(c3ccc4c(c3)OCCO4)C2)c1` (configuration not stated), inactive: -12.6%.

For `Cc1ccc(Cl)cc1NC(=O)NCc1cccn1Cc1ccc(F)cc1`, the “activity change, positive = activation” value was inactive: -23.6%.

`O=C(Nc1ccccc1O)c1cc(S(=O)(=O)N2CCCC2)ccc1Cl`: the “activity change, positive = activation” value was inactive: -38.6%.

On to `Cc1ccc2nc(-c3ccc(NC(=O)c4ccccc4S(C)(=O)=O)cc3)sc2c1`, for which the “activity change, positive = activation” value was inactive: 15.4%. To `COc1ccc2c(c1)c1c(c(=O)n(-c3ccc(OC)c(OC)c3)c(=O)n1CC(=O)N1CCCC1)n2C` belongs inactive: -13.4%; to `Cc1ccc(NC(=O)N2CCN(c3nnc(C)c4c(C)n(-c5ccc(Cl)cc5)nc34)CC2)c(C)c1`, inactive: -7.5%. Then `Cc1ccc(CNC(=O)CSc2ncc(S(=O)(=O)c3ccc(C)c(Cl)c3)c(=O)[nH]2)cc1`, with inactive: 3.12%. Then `O=C1CCCC(=O)C1C(=O)c1ccc(C(F)(F)F)cc1[N+](=O)[O-]`, with inactive: -0.543%. With `C[C@@H]1CN(Cc2ccc(F)cc2)[C@@H](C)CN1C(=O)c1cc2c(C(=O)C(=O)N(C)C)cn(C)c2cc1Cl`, the “activity change, positive = activation” value was inactive: -31%. To `Cc1ccc(NC(=O)CSc2nc3ccc(NC(=O)COc4ccc(C)cc4)cc3s2)cc1` belongs inactive: -7.29%; to `NC(=O)NS(=O)(=O)c1ccc(N)cc1`, inactive: -5.23%.

On to `COc1ccccc1N1CCN(C(=O)CCn2nc(C)c(S(=O)(=O)N3CCCC3)c2C)CC1`, for which the “activity change, positive = activation” value is inactive: -3.99%.

Consider `O=C(Nc1nnc(C2CC(=O)N(c3ccc(Cl)cc3)C2)s1)c1ccco1` (configuration not stated), for which the “activity change, positive = activation” value was inactive: -3.68%. To `Cc1ccc(SCc2nc(-c3ccc(C(=O)Nc4cc(C)ccc4C)cc3)oc2C)cc1` belongs inactive: -31.2%.

Regarding `O=C(Nc1ccc2[nH]c(=O)c(=O)[nH]c2c1)c1cccc(F)c1`, the “activity change, positive = activation” value was inactive: -5.71%. Then `Cc1ccccc1C1=CCN(c2ncc(NC(=O)c3ccc(Cl)cc3)cc2C(=O)O)CC1`, with inactive: -5.25%. Then `Cc1nc2nc(SCC(=O)NCCc3ccc(Cl)cc3)nn2c(C)c1Cc1ccccc1Cl`, with inactive: -18.6%; and `Cc1nc2c(-c3ccccc3)c(C)nn2c(C)c1CCC(=O)Nc1ccccc1F`, with inactive: -37.1%; and `COc1ccc(C2CC(=O)Nc3c2c(=O)n(C)c2nc4ccccc4n32)cc1` (configuration not stated), with inactive: -26.7%.

On to `COc1ccc(C(=O)c2cn(Cc3cccc(C)c3)c3cc4c(cc3c2=O)OCO4)cc1`, for which the “activity change, positive = activation” value is inactive: -14.7%. To `COc1cc(Cl)c(C)cc1NC(=O)CSc1cc(-c2ccccc2)nc(C)n1` belongs inactive: -4.13%; to `COc1ccc(CC(=O)NCCc2csc(-c3ccc(C(F)(F)F)cc3)n2)cc1`, inactive: -5.96%. As to `CCc1ccccc1NC(=O)Cn1c(=O)n(CC(=O)NCCc2ccccc2)c(=O)c2ccccc21`, the “activity change, positive = activation” value is inactive: -7.69%.

Take `COC(=O)c1sc2cccc(F)c2c1S(=O)(=O)Nc1ccc(C)cc1Cl`: the “activity change, positive = activation” value was inactive: -8.55%. As for `Cc1c(/C=C(\C#N)C(=O)Nc2cccc(Cl)c2)c2ccccc2n1Cc1ccccc1`, the “activity change, positive = activation” value is inactive: -17.9%.

Regarding `Cc1ccc(NS(=O)(=O)c2ccc3c(c2)[C@H]2C=CC[C@H]2[C@@H](c2ccc(F)cc2)N3)cc1C`, the “activity change, positive = activation” value is inactive: -29.7%. As for `Cn1c(=O)c2c(SCC(=O)NCc3ccc(F)cc3)nc(-c3ccccc3Cl)nc2n(C)c1=O`, the “activity change, positive = activation” value is inactive: 7.68%.

Consider `CN1C(=O)Cc2cc(S(=O)(=O)CCC(=O)Nc3ccc(OC(F)(F)F)cc3)ccc21`, for which the “activity change, positive = activation” value is inactive: -21.4%. To `Cc1ccc(NC(=O)CN2C(=O)c3ccccc3Sc3ccc(C(=O)N4CCOCC4)cc32)c(Cl)c1` belongs inactive: -13.1%; to `CCN(C(=O)C1CCCN(c2ncnc3c2nc2n3CCCCC2)C1)c1cccc(C)c1` (configuration not stated), inactive: -35%. Then `CCOc1ccc(OC(=O)c2c(-c3ccccc3Cl)noc2C)cc1`, with inactive: -25.4%. To `CCc1cc2c(cc3c(=O)n(CC(=O)NCc4cc(Br)ccc4OC)ncn32)s1` belongs inactive: -1.41%; to `CCN(CC)S(=O)(=O)c1ccc2oc(C(=O)Nc3cc(C)ccc3OC)c(C)c2c1`, inactive: 19%. Consider `CC(=O)c1ccc(N2CCN(C(=O)CCn3cnc4onc(-c5ccc(F)cc5)c4c3=O)CC2)cc1`, for which the “activity change, positive = activation” value is inactive: -10.4%.

As for `O=C1CC(c2ccc(F)cc2)c2c(c3ccccc3[nH]c2=O)O1` (configuration not stated), the “activity change, positive = activation” value is inactive: -8.41%. As for `CCOc1ccccc1NC(=O)Nc1cc2c(cc1N1CCCCC1)n(CC)c(=O)n2CC`, the “activity change, positive = activation” value is inactive: -31.9%. Then `CCOC(=O)c1ccc(NC(=O)CSc2nccn2-c2cc(C)cc(C)c2)cc1`, with inactive: -24.5%. To `CCOc1ccccc1CNCc1c(C(=O)O)n(Cc2ccc(F)cc2)c2cc(C)ccc12` belongs inactive: -13.5%; to `CN1[C@H]2CC[C@H]1CC(OC(=O)c1c[nH]c3ccccc13)C2` (some centres not stated), inactive: -48.9%. Then `CC(=O)N(CC(O)CN(C(C)=O)c1c(I)c(C(=O)NCC(O)CO)c(I)c(C(=O)NCC(O)CO)c1I)c1c(I)c(C(=O)NCC(O)CO)c(I)c(C(=O)NCC(O)CO)c1I` (configuration not stated), with inactive: -5.51%; and `CCn1cc(C(=O)NCCc2ccc(C)cc2)c(=O)c2cc(S(=O)(=O)N3CCc4ccccc4C3)ccc21`, with inactive: -16.1%; and `Cc1ccc(-c2noc(-c3cc(-c4ccc(F)cc4)n[nH]3)n2)cc1`, with inactive: -12.1%. `O=C(Nc1c(-c2ccccc2)nc2ccccn12)c1ccccc1F`: the “activity change, positive = activation” value is inactive: -22.4%. To `Cc1cc(C)cc(NC(=O)CNS(=O)(=O)c2ccc3nc(C)sc3c2)c1` belongs inactive: -25.8%; to `O=S(=O)(c1ccc(-c2csc(=Nc3ccc(OC(F)(F)Cl)cc3)n2CCCO)cc1)N1CCCC1`, inactive: -63%; to `CC(C)CCNC(=O)c1ccc2c(c1)N(Cc1ccccc1F)C(=O)c1ccccc1S2(=O)=O`, inactive: -33%.

With `Fc1cccc(Cl)c1CNCCSc1nnnn1-c1ccccc1`, the “activity change, positive = activation” value is inactive: 17.4%. For `COc1cccc(C(=O)N(Cc2ccco2)c2ccccn2)c1`, the “activity change, positive = activation” value was inactive: -17.7%. `O=C(CNC(=O)c1ccccc1F)OCc1cc(=O)n2nc(C3CCCCC3)sc2n1`: the “activity change, positive = activation” value is inactive: -2.77%. Then `CCCCNC(=O)CN1C(=O)COc2ccc(S(=O)(=O)N3CCCCCC3)cc21`, with inactive: -11.6%; and `CCOc1ccc(NC(=O)C2CCN(S(=O)(=O)c3c(C)noc3/C=C/c3cccs3)CC2)cc1`, with inactive: -32.1%; and `CCOc1ccc(-c2nnc(SCC(=O)c3ccccc3)n2-c2ccccc2)cc1`, with inactive: -14.5%. Then `COC(=O)CNC(=O)N1CCN(S(=O)(=O)c2ccc3c(ccn3C)c2)CC1`, with inactive: -20.9%; and `COc1ccc(C(=O)Nc2ccc3oc(-c4ccc5ccccc5c4)nc3c2)cc1Br`, with inactive: -21%. Then `Cn1cccc1-c1cc2n(n1)CCC(=O)N2CCCC(=O)NCc1ccc(F)cc1`, with inactive: 2.78%; and `Cc1cc(=O)[nH]c2nnc(SCc3ccc(C(F)(F)F)cc3)n12`, with inactive: 4.18%. On to `Cc1cccc(C)c1NC(=O)Cn1c(SCC(=O)NCc2ccccc2)nc2ccccc21`, for which the “activity change, positive = activation” value was inactive: -10.8%. To `COc1ccc2cc(CNc3ccc(OC)c(OC)c3)c(=O)n(CC(=O)Nc3ccccc3F)c2c1` belongs inactive: -10.1%; to `CCOC(=O)c1[nH]c(C)c(CCC(=O)Nc2cccc(SC)c2)c1C`, inactive: -27.3%.
